The other results are listed elsewhere or left out. Construct or isoform of the protein are uncertain.
What follows are sequences tested against GST-SBP-ILF3 (Homo sapiens) (UniProt Q12906) (assay: targeted RNA Bind-n-Seq). Conditions: RBNS binding buffer: 25 mM Tris pH 7.5, 150 mM KCl, 3 mM MgCl2, 0.1% Tween, 0.5 mg/mL BSA, 1 mM DTT; 27 nM protein, 750 pM RNA pool; temperature not stated; high values mean tight binding; sequences stand for … in GGGUAAAAGCGAGGUGAA…CGGGACAAGUAUUAUGGG.
Work on “UUUUUUUUUUGAGAGCGGUACGCUCUUCUG [tttttgagapaired]” yielded a binding signal (log2 fold change) of 0.125.
Work on “UUUUUUUUUUGAGACCGACACGGUCUCCUA [tttttgagapaired]” yielded a binding signal (log2 fold change) of 0.411.
“UUUUUUUUUUGAGACGGGAUCCGUCUCCGG [tttttgagapaired]” showed a binding signal (log2 fold change) of 0.403.
For “UUUUUUUUUUGAGAGCGGAGCGCUCUUCUA [tttttgagapaired]”, the binding signal (log2 fold change) was 0.332.
For “UUUUUUUUUUGAGACGGCUUCCGUCUUCUA [tttttgagapaired]”, the binding signal (log2 fold change) was 0.551.
Sequence “UUUUUUUUUUGAGACCGGGCCGGUCUCCAG [tttttgagapaired]” has a binding signal (log2 fold change) of 0.644.
“UUUUUUUUUUGAGAGCGGGCCGCUCUUCUA [tttttgagapaired]” showed a binding signal (log2 fold change) of 0.344.
“UUUUUUUUUUGAGACGGUAGCCGUCUCCAG [tttttgagapaired]” was tested, and the binding signal (log2 fold change) was 0.505.
For “UUUUUUUUUUGAGACCGUAACGGUCUCCUG [tttttgagapaired]”, the binding signal (log2 fold change) was 0.382.
“UUUUUUUUUUGAGAGGGCAGCCCUCUCCUG [tttttgagapaired]” was tested, and the binding signal (log2 fold change) was 1.22.
Work on “UUUUUUUUUUGAGACCGCUGCGGUCUCCGG [tttttgagapaired]” yielded a binding signal (log2 fold change) of 0.875.
“UUUUUUUUUUGAGACUGCAGCAGUCUUCUA [tttttgagapaired]” showed a binding signal (log2 fold change) of 0.441.
Work on “GUUGGUGGUGUUGGCAUCUAACACCGCCGA [gtspaired]” yielded a binding signal (log2 fold change) of -0.15.
In the case of “UUUUUUUUUUGAGACCGCAUCGGUCUUCUA [tttttgagapaired]”, the binding signal (log2 fold change) is reported as 0.43.
“GUGUGUUGUGUUGGUACCUAACACAGCACG [gtspaired]” showed a binding signal (log2 fold change) of -0.727.
With “UUUUUUUUUUGAGAGCGUGGCGCUCUUCUA [tttttgagapaired]” the binding signal (log2 fold change) was 0.506.
With “GGUUGGUGUGUUGGCGUCUAACACAUCAGC [gtspaired]” the binding signal (log2 fold change) was -0.636.
With “UUUUUUUUUUGAGAUGGGAUCCGUCUCCUA [tttttgagapaired]” the binding signal (log2 fold change) was 0.184.
Sequence “UUUUUUUUUUGAGAUGGCGGCCAUCUCCUG [tttttgagapaired]” has a binding signal (log2 fold change) of 0.868.
“UUUUUUUUUUGAGACUGCGACAGUUUCCUG [tttttgagapaired]” showed a binding signal (log2 fold change) of 0.78.
“UUUUUUUUUUGAGAGCGAUGCGCUCUCCGG [tttttgagapaired]” gave a binding signal (log2 fold change) of 0.261.
In the case of “UUUUUUUUUUGAGACGGAUACCGUUUCCGG [tttttgagapaired]”, the binding signal (log2 fold change) is reported as 0.469.
“UUUUUUUUUUGAGAACGUACCGUUCUCCAG [tttttgagapaired]” gave a binding signal (log2 fold change) of 0.512.
In the case of “UUUUUUUUUUGAGACUGAUCCAGUCUCCUA [tttttgagapaired]”, the binding signal (log2 fold change) is reported as 0.192.
Work on “UUUUUUUUUUGAGAGGGACUCCUUCUCCAG [tttttgagapaired]” yielded a binding signal (log2 fold change) of 0.00867.
“UUUUUUUUUUGAGACCGGAGCGGUCUCCAG [tttttgagapaired]” showed a binding signal (log2 fold change) of 0.726.
Sequence “UUUUUUUUUUGAGAACGAACCGUUCUCCGG [tttttgagapaired]” has a binding signal (log2 fold change) of 0.0448.
Work on “GUGUGUGGUGUUGGAGUCUAACACCAUACA [gtspaired]” yielded a binding signal (log2 fold change) of -0.404.

Reference: PMC5892938
